Source: the supplement of paper PMC10126150
Sequences with one replicate were seen in a single cluster, so their values are uncertain.

Test system: ATP
Assay: switch fluorescence ratio, 500 uM ATP over buffer (Cy3 cluster intensity, sum of 5 cycles each) (fold (ratio)); higher = stronger signal-on switching upon ATP binding; sequences stand for … in TCGTCGGCAGCGTCAGATGTGTATAAGAGACAGTTTTTTTTTTTTTTTTTTTTTTTTT…TC
Settings: aptamer strand: ATP DNA aptamer (quencher-CACCTGGGGGAGTATTGCGGAGGAAGG + anchor), 100 nM annealed; ATP concentration: 500 uM; one replicate
Method in brief: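 Exposure to 500 uM ATP lasted 15 min at 22 °C before imaging, and a selection-buffer image was taken beforehand, for Cy3-labelled switching-strand clusters on a modified Illumina MiSeq flow-cell annealed to 100 nM quencher-labelled ATP aptamer. Five buffer/ATP cycles were run with NaOH stripping and re-annealing between them. The fluorescence ratio per cluster is summed target-cycle over summed buffer-cycle Cy3 intensity, averaged per switch-domain sequence. Clusters outside 100-1000 RFU were excluded.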

| Sequence | switch fluorescence ratio |
| --- | --- |
| CTTAGACTTT | 0.996 |
| CGGCCCTTTT | 1.02 |
| CGCTTGTAAC | 1.22 |
| CGGGGTGGCC | 0.949 |
| GCGGAATGGC | 1.07 |
| ACAACACTGA | 1.31 |
| ACGGCAGCGG | 1.06 |
| CTTTAGATTT | 0.971 |
| GGCGCCCGGT | 0.961 |
| ATGGTATATC | 1.02 |
| CGCCACAGCG | 1.01 |
| CGGGACCGTA | 0.977 |
| CAATATAG | 0.981 |
| AGTAGGAGTT | 0.956 |
| TCATGATTTA | 1.01 |
| CGAATTACTC | 2.43 |
| AACGGAAGTC | 1.01 |
| CGAGTTATTT | 0.986 |
| CGGGTCGTCG | 1.01 |
| ACGCACACGA | 1.5 |
| GCCAAACAAT | 1.03 |
| GCTGGTATAG | 0.974 |
| ACGCGGTGGG | 1.03 |

| Sequence | switch fluorescence ratio |
| --- | --- |
| GGTAAAACCC | 1.04 |
| CAGGATAGTA | 1.06 |
| CTCCGACCT | 1.85 |
| TGGAAGGCA | 0.987 |
| AAATCTTGAC | 0.99 |
| CCAAGTACGT | 1.33 |
| CTATTTTCGC | 1.01 |
| GCTCCGTGTG | 1.97 |
| CTTGTGTAAG | 1.02 |
| AGATACGAAG | 0.962 |
| ATTATAAAGA | 1.03 |
| TCCAGAGAAA | 1.01 |
| ATCGCAGTTA | 1.03 |
| CTGTCATTTT | 1.03 |
| CAGTGAGTTG | 1.01 |
| TTCGGGTTC | 0.995 |
| TTTCTCGCC | 1.62 |
| CTCTGCCCCT | 1.2 |
| ATCATGGATC | 0.955 |
| ACGGATGTTA | 1.07 |
| ATCAAACAGG | 1.08 |
| GCAGTGAGCC | 1.03 |
| ATATGTGCAG | 0.926 |

| Sequence | switch fluorescence ratio |
| --- | --- |
| GGAGTGCCCG | 1 |
| TCGCCGTCCA | 1 |
| TAACAGGAAG | 0.974 |
| GAGGCCTGAA | 1 |
| GCACGGGGAG | 0.984 |
| ACAAAGCCTT | 1.11 |
| CTCAGCATGT | 1.74 |
| AAGTCGGACC | 0.986 |
| AAAACTAGTT | 0.981 |
| ATGGGTTGCG | 1.01 |
| CAAGTGTAGG | 0.976 |
| TCTGGCAAGT | 0.982 |
| GCGATCTTTA | 1.01 |
| CTTAAAGCGC | 0.944 |
| TACCGATCTC | 1.25 |
| GACGTAGGTA | 1.04 |
| ATGAGTGAAA | 0.978 |
| TCTATTGGGG | 0.971 |
| CGGATATTTC | 1.03 |
| TTTGGGTACA | 0.996 |
| ACGAGGCAGT | 5.92 |
| GGAACGAGGT | 1.01 |
| GCACAAGAAG | 1.05 |

| Sequence | switch fluorescence ratio |
| --- | --- |
| CCCCTGGGCG | 1.57 |
| ACCCGACTTT | 1.14 |
| AGTGTTCGAG | 0.985 |
| TACTCAGCTA | 2.15 |
| CGTCGGGACA | 0.982 |
| AATGGACCAG | 1.01 |
| AACGTTAAAG | 1.05 |
| TGGTAATTG | 0.964 |
| GAGTACATCG | 0.987 |
| CGTGCAGTAG | 1.47 |
| ATGAGTTGTC | 0.975 |
| TACCTAGATC | 1.04 |
| AGTATGGG | 0.98 |
| TCGGCTGTGG | 1.03 |
| TTAATCCAG | 1.05 |
| TATCTAAGAA | 1.01 |
| TGTGGGCCTT | 1.03 |
| AAAGTCTTTC | 1.01 |
| AATGTCCGGA | 1.01 |
| AGAGAAACGT | 1.03 |
| AGCGGGCTGA | 1.05 |
| AAGAAGTGCG | 1.06 |
| CGACCGACTA | 1.35 |

| Sequence | switch fluorescence ratio |
| --- | --- |
| CGTAGCATGG | 4.14 |
| GATGCTTCTA | 0.963 |
| TAATACGGTA | 1.13 |
| GCCCTTGGGG | 0.983 |
| GAGTCGCTGA | 0.976 |
| TAACCCTCCT | 1.36 |
| TGATGTTCCT | 1.04 |
| ATTTGAGTAA | 0.969 |
| GCAAGGAATT | 0.977 |
| GGCCTTCTTT | 0.997 |
| GCTGTGCATT | 1.02 |
| AGTTTTACCA | 0.997 |
| GAGATCGCTA | 0.977 |
| TCAGTCCCTT | 0.978 |
| GGGTCAGTT | 1.01 |
| TGTAGTGGGT | 0.995 |
| CTTCAAGGTG | 2.15 |
| GCCATTCCA | 0.988 |
| CTCTGAGTCA | 1.02 |
| TGTTCTGAAG | 0.981 |
| CGTGTACAAC | 1 |
| AAAGAAGATA | 0.943 |
| AACGCTCTGG | 0.97 |

| Sequence | switch fluorescence ratio |
| --- | --- |
| ATATTTTGA | 0.933 |
| TAAGAACTCC | 1.07 |
| GGATGAAATA | 1.03 |
| TAAAGTTTGA | 1.01 |
| GTGAAGACGG | 1.01 |
| CAGCCACGCT | 1.02 |
| AAGACTTATC | 1 |
| GTGAGAAACC | 1.03 |
| CCCGTTTTTA | 1.01 |
| GGACGGGGAG | 0.959 |
| GAAACGTAAC | 1.36 |
| TAGAAATCTT | 1.01 |
| AGCCTAAAAT | 0.993 |
| TGTCTCGAGC | 1.04 |
| GTGTGAGACT | 1.08 |
| CGGTCTGTAA | 1.04 |
| CCATTGGCAT | 1.11 |
| CGCGAGTTTT | 1.02 |
| GTACCTTACC | 1.8 |
| GGCTCTCCAG | 0.967 |
| GTCTAATTTA | 1.01 |
| CGAAGCCGTG | 0.978 |
| CCGGAAGGGA | 1.76 |

| Sequence | switch fluorescence ratio |
| --- | --- |
| GTTACCATTG | 1.03 |
| CTTCCTTCCG | 1.59 |
| TAAACGATAT | 1.04 |
| ACTCATGATC | 1.11 |
| GAGCAGGCG | 0.876 |
| TTTAGAAACG | 0.958 |
| CTCCCCTGCT | 1.14 |
| TATCCCAAG | 0.987 |
| TTTCGACTGC | 1.02 |
| GAGGACCAGT | 0.986 |
| TGTAAATTTC | 0.975 |
| TTGTGCGTCC | 1.05 |
| TTTTCGTAAA | 1.08 |
| CGATAGAAAT | 1.01 |
| ATTGCGCCTC | 1.04 |
| CGTGGTTTCA | 0.974 |
| AAACACTCAG | 0.997 |
| CATCGATATT | 0.937 |
| AGAGAAATAG | 1.01 |
